Reference: PubChem BioAssay AID588342 (National Center for Advancing Translational Sciences (NCATS), 2011)
Hit rate of the full screen: of about 360,000 compounds, about 25,000 (6.9%) were called active. The shares of active, inactive and inconclusive entries below differ from those in the screen. The call rests on the fitted dose curve; in most records, active means well fitted inhibition curve with a large enough effect; inconclusive means small, poorly fitted or top-dose-only effect; inactive means flat fitted curve, though single readings scatter. Potencies of inconclusive entries are doubtful fits and often do not repeat.

These compounds were tested against Luciferin 4-monooxygenase (Photinus pyralis) (UniProt P08659) (assay: qHTS profiling assay for firefly luciferase inhibitor/activator using purifed enzyme and Km concentrations of substrates (counterscreen for miR-21 project)). Settings: purified FLuc, luminescence inhibition; activity change, negative = inhibition: at 57.5 µM (top of the series).
Sequence of UniProt P08659 (P08659 whole entry, looked up): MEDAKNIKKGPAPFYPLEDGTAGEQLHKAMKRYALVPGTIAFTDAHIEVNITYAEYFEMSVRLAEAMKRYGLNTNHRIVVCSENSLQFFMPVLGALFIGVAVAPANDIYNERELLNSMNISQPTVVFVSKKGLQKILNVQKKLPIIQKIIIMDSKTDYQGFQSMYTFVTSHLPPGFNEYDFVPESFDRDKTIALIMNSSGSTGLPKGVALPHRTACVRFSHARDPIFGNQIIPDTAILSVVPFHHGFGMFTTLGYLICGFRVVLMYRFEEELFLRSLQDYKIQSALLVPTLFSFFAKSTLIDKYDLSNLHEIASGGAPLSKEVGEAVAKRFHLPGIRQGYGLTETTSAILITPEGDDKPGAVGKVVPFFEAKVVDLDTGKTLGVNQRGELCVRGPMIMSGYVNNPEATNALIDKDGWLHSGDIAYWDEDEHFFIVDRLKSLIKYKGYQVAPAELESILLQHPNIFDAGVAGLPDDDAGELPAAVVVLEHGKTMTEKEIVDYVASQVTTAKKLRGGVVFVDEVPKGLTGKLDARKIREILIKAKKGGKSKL
Procedure, shortened: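 Biochemical qHTS of compounds, final roughly 60 µM downward over six points, against 10 nM purified firefly luciferase using Km concentrations of substrates (10 uM D-luciferin, 10 uM ATP) in Tris acetate pH 7.5 buffer; luminescence output.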
Further: nearly all actives have a fitted effect of over 55% in size.
Potency means the concentration at half of the fitted maximal effect; tags describe the fitted curve by direction and shape.
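Wherever activity change, negative = inhibition is given: plate controls were vehicle for no effect and reference inhibitor for full effect.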

| Structure (SMILES) | Potency | activity change, negative = inhibition |
| --- | --- | --- |
| COc1ccc(OC)c(Nc2ncnc3sccc23)c1 | inconclusive: 23.9 µM [inhibitor, single point] | – |
| COC(=O)C1CCN(C(=O)COC(=O)c2ccc(OC)c(S(=O)(=O)N3CCCc4ccccc43)c2)CC1 | inconclusive: 37.9 µM [inhibitor, partial curve, poor fit] | – |
| CCOc1ccc(CNC(=O)c2cc3ccccn3n2)cc1 | inconclusive: 23.9 µM [inhibitor, partial curve] | – |
| CCCCCSc1nnc2c(n1)OC(c1cccn1C)N(C(C)=O)c1ccccc1-2 (stereo not drawn) | – | inactive: -12.5% |
| CCOC(=O)CSc1ccc(C(=O)Nc2ccc(OC)cc2)cn1 | inconclusive: 13.5 µM [inhibitor, partial curve] | – |
| COc1cc(/C=N/NC(=O)c2ccncc2)ccc1OCC(=O)Nc1ccccc1 | inconclusive: 30.1 µM [inhibitor, partial curve, poor fit] | – |
| CC(C)NC(=O)CSc1c2c(nc3ccccc13)CCCC2 | – | inactive: 0.394% |
| CCS(=O)(=O)N1Cc2ccccc2CC1C(=O)Nc1ncc(C)s1 (stereo not drawn) | inconclusive: 30.1 µM [inhibitor, single point] | – |
| CC(=O)Nc1cccc(C(=O)/C=C/c2ccc[nH]2)c1 | inconclusive: 23.9 µM [inhibitor, single point] | – |
| Cc1ccc(NC(=O)c2ccc(C)c(S(=O)(=O)N3CCCCCC3)c2)cc1 | inconclusive: 33.8 µM [inhibitor, partial curve, poor fit] | – |
| O=[N+]([O-])c1ccc(NC(=S)NCCc2ccccc2)cc1 | inconclusive: 26.9 µM [inhibitor, single point] | – |
| O=C(CNC(=O)c1cc(Cl)nc2ccccc12)Nc1ccccc1Br | – | inactive: 6.96% |
| CCCC[n+]1ccc(-c2nc3ccc([N+](=O)[O-])cc3[nH]2)cc1 | inconclusive: 26.9 µM [inhibitor, single point] | – |
| CCOC(=O)c1ccc(N=C2SC(C(=O)Nc3ccccc3)CC(=O)N2C)cc1 (stereo not drawn) | – | inactive: 4.66% |
| Cc1ccc(-c2cc(C(=O)N3CCc4ccccc4C3)no2)cc1 | active: 23.9 µM | – |
| COc1cccc(NC(=O)C2=COCCO2)c1 | inconclusive: 19 µM [inhibitor, partial curve] | – |
| CCc1cc2cc(C(=O)Nc3ccc(F)cc3)sc2s1 | inconclusive: 1.69 µM [inhibitor, partial curve, poor fit] | – |
| Cc1ccc(-n2nc3c(=O)n(CCCC(=O)NCc4cccc(Cl)c4)nc(C)c3c2C)cc1 | inconclusive: 37.9 µM [inhibitor, single point] | – |
| CC1=NN(c2ccc(Br)cc2)C(=O)/C1=C/c1ccc(-c2ccccc2C(=O)O)o1 | active: 26.9 µM | – |
| CCOC(=O)c1sc(N)c(C(=O)OC)c1C | active: 15.1 µM | – |
| O=C(O)c1cccc(OCCN2CCCC2=O)c1 | – | inactive: 0.602% |
| FC(F)(F)c1cc(-c2ccco2)nc2ncnn12 | – | inactive: -0.694% |
| CN(CC(=O)Nc1c(Cl)cccc1Cl)C(=O)c1cc2ccccc2cc1O | – | inactive: 4.12% |
| CCOc1ccc(-c2c(C(=O)N/N=C/C3CCCCC3)nnn2-c2nonc2N)cc1 | – | inactive: 6.64% |
| O=C(/C=C/c1ccc(Cl)cc1)c1cccnc1 | active: 21.3 µM | – |

| Structure (SMILES) | Potency | activity change, negative = inhibition |
| --- | --- | --- |
| Cn1cccc1/C=N/NC(=O)c1cc(-c2cccs2)nc2ccccc12 | active: 13.5 µM | – |
| COc1ccc(NC(=O)CN(C)C(=O)c2cc(-c3ccco3)nc3ccccc23)cc1 | active: 16.9 µM | – |
| COc1cccc(C(=O)Nc2ccccc2-c2ccccc2)c1 | inconclusive: 23.9 µM [inhibitor, partial curve, poor fit] | – |
| Cc1ccc2nc(C(O)C(O)c3nc4ccc(C)cc4[nH]3)[nH]c2c1 (stereo not drawn) | active: 10.7 µM | – |
| C=CCNC(=S)N1CCC(C(=O)c2ccc3c(c2)OCCO3)CC1 | – | inactive: -2.44% |
| O=C(Nc1ccc2c(c1)OCO2)c1ccc(Cl)c(S(=O)(=O)N2CCOCC2)c1 | inconclusive: 26.9 µM [inhibitor, partial curve, poor fit] | – |
| O=C(Nc1cccnc1)c1cc2c(ccc3ccccc32)o1 | active: 0.953 µM | – |
| O=C(CCC1CCCN(C(=O)c2ccsc2)C1)N1CCN(c2ccccn2)CC1 (stereo not drawn) | – | inactive: -0.609% |
| O=C(NNC(=O)c1ccccc1OCc1ccccc1Cl)c1csc(N2CCOCC2)n1 | inconclusive: 19 µM [inhibitor, partial curve] | – |
| O=C(NC(=S)Nc1ccccc1[N+](=O)[O-])c1ccccc1Cl | inconclusive: 16.9 µM [inhibitor, partial curve] | – |
| CCN(CC)CCn1c(NCc2ccc(C)o2)nc2ccccc21 | – | inactive: 2.79% |
| CC(C)(C)C(=O)OCc1nc(-c2ccc(Cl)cc2)cs1 | active: 1.2 µM | – |
| Cc1ccc(NC(=O)N2CCCCCC2)c(C)c1 | inconclusive: 26.9 µM [inhibitor, single point] | – |
| COc1ccc(C(=O)N(Cc2ccccc2)c2ccc(C)cc2)cc1S(=O)(=O)N1CCOCC1 | inconclusive: 5.36 µM [inhibitor, partial curve, poor fit] | – |
| COc1cccc(Nc2nnc(SCC(=O)N(CC(C)C)CC(C)C)s2)c1 | active: 10.7 µM | – |
| Cc1nn(-c2ccccc2)c(Cl)c1/C=N/NC(=O)c1cccnc1 | active: 13.5 µM | – |
| O=C(O)CNC(=O)CC1S/C(=N/N=C/c2ccccc2O)NC1=O (stereo not drawn) | inconclusive: 37.9 µM [inhibitor, partial curve, poor fit] | – |
| COc1ccc(Nc2ncnc3nc[nH]c23)cc1OC | – | inactive: -2.89% |
| Cc1cccc(-c2noc(CN(C)C(=O)c3ccco3)n2)c1 | inconclusive: 37.9 µM [inhibitor, single point] | – |
| O=C(Nc1ccc(-c2cn3c(n2)SCC3)cc1)c1ccc2c(c1)OCO2 | inconclusive: 4.26 µM [inhibitor, full curve] | – |
| O=C(CSc1nnc(NC(=O)c2ccc(F)cc2)s1)NC1CC1 | active: 5.36 µM | – |
| O=C(O)CCc1ccc(S(=O)(=O)NCCc2ccccc2)cc1 | – | inactive: -1.67% |
| Cc1ccc(OCC(=O)NC(=S)Nc2cccc(NC(=O)c3ccccc3Cl)c2)cc1 | inconclusive: 12 µM [inhibitor, partial curve, poor fit] | – |
| COC(=O)c1sccc1NC(=O)/C=C\c1ccc(Cl)cc1Cl | inconclusive: 1.2 µM [inhibitor, full curve] | – |
| CCOc1ccc(NC(=O)CSc2nc3ccsc3c(=O)n2CCC(C)C)cc1 | – | inactive: -1.58% |

| Structure (SMILES) | Potency | activity change, negative = inhibition |
| --- | --- | --- |
| O=C(CSc1ccc(F)cc1)Nc1ccccc1Br | inconclusive: 19 µM [inhibitor, partial curve] | – |
| Cc1sc(N)c(C#N)c1C | – | inactive: -0.906% |
| Cc1ccc2nc(C3CCN(CC(=O)Nc4ccc5c(c4)OCCO5)CC3)[nH]c2c1 | inconclusive: 30.1 µM [inhibitor, partial curve, poor fit] | – |
| Cc1cccc(-c2cccc(NC(=O)C3CCCN(C(=O)c4csc(C)n4)C3)c2)c1 (stereo not drawn) | inconclusive: 26.9 µM [inhibitor, partial curve, poor fit] | – |
| O=C(Nc1cc2c3c(c1)CC(=O)N3CCC2)c1ccc(F)cc1 | inconclusive: 15.1 µM [inhibitor, partial curve] | – |
| COc1cc(NC(=O)c2ccccc2F)c(OC)cc1NC(=O)CN1CCCCC1 | inconclusive: 30.1 µM [inhibitor, single point] | – |
| COC(=O)c1ccc(Cc2ccccc2)o1 | inconclusive: 30.1 µM [inhibitor, partial curve, poor fit] | – |
| COc1ccc(OC)c2nc(-c3cccnc3)ccc12 | inconclusive: 26.9 µM [inhibitor, single point] | – |
| CCC(O)c1nc2ccccc2n1Cc1cc(C)ccc1C (stereo not drawn) | – | inactive: -1.25% |
| O=C1c2ccccc2C(=O)c2c1cccc2N1CCN(CCO)CC1 | inconclusive: 30.1 µM [inhibitor, single point] | – |
| Nc1nc(N)nc(-c2cc(F)ccc2O)n1 | inconclusive: 21.3 µM [inhibitor, single point] | – |
| O=C(Nc1ccc2oc(-c3ccccc3F)nc2c1)c1ccco1 | active: 6.01 µM | – |
| Cc1ccc2occ(/C=N/O)c(=O)c2c1 | inconclusive: 21.3 µM [inhibitor, partial curve, poor fit] | – |
| CCCN(CC(=O)Nc1ccccc1OC)C(=O)c1ccc2[nH]c3c(c2c1)CC(C)CC3 (stereo not drawn) | inconclusive: 30.1 µM [inhibitor, partial curve, poor fit] | – |
| O=[N+]([O-])c1cc(-c2nc3nc4ccccc4nc3n2CCc2ccccc2)cc([N+](=O)[O-])c1 | – | inactive: -3.56% |
| Cc1ccc(OCc2cc(C(=O)NCCc3cccnc3)no2)cc1C | inconclusive: 16.9 µM [inhibitor, partial curve] | – |
| O=C(c1ccccc1-c1nc(-c2ccc(Cl)cc2)no1)N1CCCC1 | active: 19 µM | – |
| COc1ccc(OCc2nnc(SCC(=O)NC3CCCCC3)o2)cc1 | inconclusive: 37.9 µM [inhibitor, partial curve, poor fit] | – |
| CCc1ccc(-c2[nH]nc3nc(-c4cc(OC)ccc4OC)cc(C(=O)O)c23)cc1 | active: 1.9 µM | – |
| COc1ccc(C2CC(c3ccccc3)n3nc(NC(=O)c4cccs4)nc3N2)cc1 (stereo not drawn) | inconclusive: 30.1 µM [inhibitor, partial curve, poor fit] | – |
| COC(=O)c1sccc1S(=O)(=O)N(CC(=O)Nc1cc(F)ccc1F)c1ccc(C)c(C)c1 | – | inactive: -3.08% |
| O=C(COC(=O)c1ccc(NS(=O)(=O)c2cccs2)cc1O)NCc1ccccc1 | inconclusive: 23.9 µM [inhibitor, partial curve, poor fit] | – |
| CCCCCc1ccc(C2=NNC(=O)CC2)cc1 | inconclusive: 21.3 µM [inhibitor, partial curve] | – |
